Source: PubChem BioAssay AID1508623 (National Center for Advancing Translational Sciences (NCATS), 2021)
Out of some 48,000 compounds screened, about 450 (0.94%) were called active. This list was built around the results that the source calls inconclusive (neither active nor inactive); the mix of calls is not that of the screen. Calls follow the shape of the dose curve; as a rule, active = well fitted inhibition curve with a large enough effect; inconclusive = small, poorly fitted or top-dose-only effect; inactive = no such curve, though single readings can be large or run the other way. Where the call is inconclusive, the potency comes from a doubtful curve fit.

assay: Primary qHTS for Identification of Small Molecule Inhibitors of Huntingtin Promoter Activity; conditions: HEK293 HTT promoter firefly luciferase reporter (activity 0% = vehicle and -100% = no light), 24 h; activity change, negative = inhibition: at 57.5 µM (top of the series); also: nearly all actives have a fitted effect of over 50% in size
In short: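 Firefly luciferase signal from promoter-reporter HEK293 cells was scaled between vehicle (0%) and zero RLU (-100%). Compounds were tested at final concentrations of up to 57.5 uM over 24 h at 37 degrees C. PTC124 at 50 uM final served as control inhibitor.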
Potency is read from the fitted curve at half-maximal effect; tags tell the direction and shape of the fitted curve.

SMILES | activity change, negative = inhibition | Potency
Cc1ccc(S(=O)(=O)c2nc(-c3ccc(F)cc3)oc2N2CCN(c3ccccc3)CC2)cc1 | inactive: -11.8% | –
COc1ccc(C2(CNC(=O)C(=O)Nc3ccccc3C)CCCC2)cc1OC | – | inconclusive: 28.2 µM [inhibitor, partial curve, poor fit]
Cc1ccc(NC(=O)C2CCCN(S(=O)(=O)c3c(C)noc3C)C2)cc1 (stereo not given) | – | inconclusive: 39.8 µM [inhibitor, single point]
Clc1ccc(-n2c(Cc3ccccc3)nnc2SCc2nc(-c3cccs3)no2)cc1 | – | inconclusive: 31.6 µM [inhibitor, single point]
CCOC(=O)c1scc(-c2ccc(C)cc2)c1S(=O)(=O)Nc1cc(OC)ccc1OC | – | inconclusive: 22.4 µM [inhibitor, partial curve, poor fit]
Cc1cccc(N(CC(=O)NCCSCc2ccccc2)S(=O)(=O)c2ccccc2)c1C | – | inconclusive: 39.8 µM [inhibitor, single point]
Cc1nc(N2CCCC2)c2c(C(=O)N3CCN(c4cc(Cl)ccc4C)CC3)c(C)oc2n1 | – | inconclusive: 35.5 µM [inhibitor, single point]
CCCC(=O)N1CCN(c2nc3ccc(F)cc3s2)CC1 | – | inconclusive: 20 µM [inhibitor, single point]
COc1ccc(CNC(=O)Cc2ccc(NC(=O)N3CCSc4ncccc43)cc2)cc1OC | – | inconclusive: 12.6 µM [inhibitor, partial curve]
COc1c(C)cc(Br)cc1C(=O)Nc1ccc(-c2nc3ncccc3o2)cc1 | – | inconclusive: 22.4 µM [inhibitor, single point]
COc1cc(NC(=O)c2ccc3oc(=O)c(S(=O)(=O)c4ccccc4)cc3c2)cc(OC)c1 | – | inconclusive: 39.8 µM [inhibitor, single point]
CC(C)c1ccc(NC(=O)C2CCN(S(=O)(=O)c3cccc4nonc34)CC2)cc1 | inactive: -10.1% | –
Cc1ccc(N2C(=O)CSC23C(=O)N(Cc2ccccc2F)c2ccccc23)cc1F (stereo not given) | – | active: 25.1 µM
Cc1ccccc1NC(=O)CSc1cn(CC(=O)N2CCCCCC2)c2ccccc12 | – | inconclusive: 31.6 µM [inhibitor, single point]
CCC(CC)c1nn2c(=O)cc(COc3ccc(NC(=O)c4ccccc4C)cc3)nc2s1 | – | inconclusive: 4.47 µM [inhibitor, partial curve, poor fit]
Cc1ccccc1NC(=O)c1ccc2[nH]c(C)c(C)c2c1 | inactive: 72.8% | –
COc1cc(NC(=O)CC2C(=O)OCCN2Cc2ccccc2)cc(OC)c1 (stereo not given) | – | inconclusive: 14.1 µM [inhibitor, partial curve, poor fit]
COc1ccc(C(=O)NCC(c2cccnc2)N2CCN(c3ccccc3)CC2)cc1 (stereo not given) | – | inconclusive: 14.1 µM [inhibitor, partial curve, poor fit]
COc1cccc(Cn2c(=O)cc(C)c3c(C)nn(C)c32)c1 | – | inconclusive: 14.1 µM [inhibitor, partial curve]
COc1ccc(S(=O)Cc2ccc(C(=O)N3CCN(c4cccc(C)c4C)CC3)o2)cc1 (stereo not given) | – | inconclusive: 11.2 µM [inhibitor, partial curve, poor fit]

SMILES | activity change, negative = inhibition | Potency
Cc1c(Cl)cccc1NC(=O)Cn1c(=O)n(Cc2ccco2)c(=O)c2sc3ccccc3c21 | inactive: -4.84% | –
O=C(CCCCn1c(=O)c2ccccc2n(CC(=O)Nc2cccc(C(F)(F)F)c2)c1=O)NCc1ccc2c(c1)OCO2 | – | inconclusive: 25.1 µM [inhibitor, single point]
Cc1ccc(Cl)cc1NC(=O)COC(=O)CC(C)(C)CC1=NS(=O)(=O)c2ccccc2N1 | – | inconclusive: 35.5 µM [inhibitor, single point]
Cc1ccccc1NC(=O)c1ccc(F)c(S(=O)(=O)N2CCN(c3ccccc3F)CC2)c1 | – | inconclusive: 31.6 µM [inhibitor, partial curve, poor fit]
COc1ccc(OC)c(CCNC(=O)c2ccc3c(c2)c(C)c(C)n3Cc2ccccc2)c1 | – | inconclusive: 35.5 µM [inhibitor, single point]
CCOC(=O)c1ccccc1NC(=O)CN1CCCN(Cc2cc(C)ccc2C)S1(=O)=O | – | inconclusive: 22.4 µM [inhibitor, single point]
COc1ccc(-c2[nH]c(-c3cccc(OC)c3)nc2SCC(=O)NC2CCCC2)cc1 | – | inconclusive: 28.2 µM [inhibitor, partial curve, poor fit]
O=S(=O)(NCC(c1cccs1)S(=O)(=O)c1ccccc1)c1ccc(F)c(C(F)(F)F)c1 (stereo not given) | – | inconclusive: 39.8 µM [inhibitor, single point]
CC(=O)Nc1ccc2nc(SCCOc3cc(C)cc(C)c3)sc2c1 | – | inconclusive: 28.2 µM [inhibitor, partial curve, poor fit]
CC(=O)N1c2ccc(S(=O)(=O)NCC3CCC(C(=O)Nc4cc(C)ccc4C)CC3)cc2CC1C (stereo not given) | – | inconclusive: 14.1 µM [inhibitor, partial curve, poor fit]
COc1ccc(OCC(=O)NCc2ccc3c(c2)CCN3C(=O)c2ccc(F)cc2)cc1 | – | inconclusive: 39.8 µM [inhibitor, single point]
COC(=O)c1cc(S(N)(=O)=O)ccc1OC | inactive: -0.934% | –
CCOc1ccc(N(C(C)C(=O)Nc2cc(Cl)ccc2OC)S(C)(=O)=O)cc1 (stereo not given) | – | inconclusive: 12.6 µM [inhibitor, partial curve]
O=C(Nc1ccc(OC(F)(F)F)cc1)C1CCN(S(=O)(=O)c2cccs2)CC1 | – | inconclusive: 17.8 µM [inhibitor, partial curve, poor fit]
O=C(NCCc1nc2ccccc2n1Cc1ccc(Cl)cc1Cl)c1ccco1 | – | inconclusive: 17.8 µM [inhibitor, partial curve]
CCn1ccc2c(OCC(=O)NCc3ccc(F)cc3)cccc2c1=O | inactive: -7.9% | –
Cc1cc(C)c2nc(N(Cc3cccnc3)C(=O)c3cccs3)sc2c1 | – | inconclusive: 17.8 µM [inhibitor, partial curve]
Oc1cc(-c2nc(-c3ccccc3)[nH]c2-c2ccncc2)ccc1Cl | – | inconclusive: 19.3 µM [inhibitor, partial curve]
CSc1ncc(C(=O)N2CCN(c3cc(Cl)ccc3C)CC2)c(C)n1 | – | inconclusive: 20 µM [inhibitor, single point]
CCCN(C(=O)CCc1nc(-c2ccc(OC)cc2)no1)c1ccccc1F | – | inconclusive: 28.2 µM [inhibitor, single point]

SMILES | activity change, negative = inhibition | Potency
COc1cccc2cc(-c3nnc(Nc4c(F)cccc4F)s3)c(=O)oc12 | inactive: 78.9% | –
COc1ccc(NC(=O)Cn2ncc3c2-c2ccccc2OC3)cc1Cl | – | inconclusive: 28.2 µM [inhibitor, single point]
CCN(CCCNC(=O)c1cc2c(Cl)nc3ccccc3c2s1)Cc1ccccc1 | inactive: -17.2% | –
CC(=O)N1c2ccc(S(=O)(=O)NCCC(=O)Nc3ccc(Br)c(C)c3)cc2CC1C (stereo not given) | – | inconclusive: 25.1 µM [inhibitor, single point]
CCN(CC)c1sc(S(=O)(=O)c2ccccc2)nc1S(=O)(=O)c1ccc(C)cc1 | inactive: -38.2% | –
CCc1ccc(S(=O)(=O)N(C(=O)Oc2ccccc2)c2ccc3oc(C)c(C(=O)OC)c3c2)cc1 | – | active: 7.94 µM
CCCCOc1cccc(C(=O)N(Cc2cccs2)c2ccc(OC)cc2)c1 | – | inconclusive: 25.1 µM [inhibitor, partial curve, poor fit]
CC(C)(C)c1ccc(-c2nc(SCC(=O)Nc3ccc(Cl)cc3)[nH]c(=O)c2C#N)cc1 | inactive: -15.4% | –
Cc1c(-c2ccc(Cl)cc2)c(=O)oc2ccc(OC(=O)N3CCOCC3)cc12 | – | inconclusive: 39.8 µM [inhibitor, single point]
Cc1ccc(Cl)cc1-n1ncc2c(N3CCCCCC3)ncnc21 | – | inconclusive: 20 µM [inhibitor, partial curve, poor fit]
COc1ccc(OC)c(/C=C/C(=O)Nc2ccc(C(=O)OCCC(C)C)cc2)c1 | – | inconclusive: 39.8 µM [inhibitor, single point]
CC(C)Oc1ccc(CNC(=O)c2cccc(NC(=O)N3CCSc4ncccc43)c2)cc1 | – | inconclusive: 22.4 µM [inhibitor, partial curve, poor fit]
CCC(=O)N1CCc2cc(Br)cc(S(=O)(=O)N3CCCC(C(=O)Nc4cccc(F)c4)C3)c21 (stereo not given) | – | inconclusive: 39.8 µM [inhibitor, single point]
CCOC(=O)c1cc(-c2ccccc2)n(-c2cccc(C(=O)Nc3cc(OC)cc(OC)c3)c2)c1C | – | inconclusive: 15.8 µM [inhibitor, partial curve]
Cc1ccc(C)c(N2CCN(C(=O)C3CCC(CNS(=O)(=O)c4cccs4)CC3)CC2)c1 (stereo not given) | – | inconclusive: 25.1 µM [inhibitor, partial curve, poor fit]
Cc1ccc(NC(=O)CN2C(=O)C(c3ccc(F)cc3)=NC23CCCCCC3)c(C)c1 | – | inconclusive: 20 µM [inhibitor, partial curve, poor fit]
CC1CCN(S(=O)(=O)c2ccc3nc(NCc4ccc(N(C)C)cc4)ccc3c2)CC1 | – | inconclusive: 12.6 µM [inhibitor, partial curve, poor fit]
COc1ccc(-c2cc(C(F)(F)F)n3nc(C)c(-c4ccccc4)c3n2)cc1OC | inactive: -6.53% | –
O=C(CCc1cn(Cc2ccc(F)cc2)c2ccccc12)NC1CCCCC1 | – | inconclusive: 28.2 µM [inhibitor, single point]
CCOc1ccc(NC(=O)NCCN2CCN(c3cc(Cl)ccc3C)CC2)cc1 | – | inconclusive: 14.1 µM [inhibitor, partial curve]
